Hit rate of the full screen: of about 410,000 compounds, about 850 (0.21%) were called active. The inconclusive results got no clear call from the source; some entries with a clear call stand among them for comparison. The call rests on the fitted dose curve; in most records, active means well fitted inhibition curve with a large enough effect; inconclusive means small, poorly fitted or top-dose-only effect, or another doubt; inactive means no such curve, though single readings can be large or run the other way. Potencies of inconclusive entries are doubtful fits and often do not repeat.
target: Glutaminase kidney isoform, mitochondrial (Homo sapiens) (UniProt O94925); assay: qHTS for Inhibitors of Glutaminase (GLS); conditions: GLS enzymatic activity, qHTS titration; series mostly up to 45.5 µM
Method in brief: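 Read-out is an Amplex red fluorescence increase coupled through glutamate oxidase and HRP, measured before and after 30 min room-temperature incubation. hKGA is in 45 mM KH2PO4 (pH 8.2) with 0.02% Tween-20; glutamine added as 1mM solution.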
Potency means the concentration at half of the fitted maximal effect; tags describe the fitted curve by direction and shape.

Chain of UniProt O94925 (O94925 whole entry, looked up, canonical isoform): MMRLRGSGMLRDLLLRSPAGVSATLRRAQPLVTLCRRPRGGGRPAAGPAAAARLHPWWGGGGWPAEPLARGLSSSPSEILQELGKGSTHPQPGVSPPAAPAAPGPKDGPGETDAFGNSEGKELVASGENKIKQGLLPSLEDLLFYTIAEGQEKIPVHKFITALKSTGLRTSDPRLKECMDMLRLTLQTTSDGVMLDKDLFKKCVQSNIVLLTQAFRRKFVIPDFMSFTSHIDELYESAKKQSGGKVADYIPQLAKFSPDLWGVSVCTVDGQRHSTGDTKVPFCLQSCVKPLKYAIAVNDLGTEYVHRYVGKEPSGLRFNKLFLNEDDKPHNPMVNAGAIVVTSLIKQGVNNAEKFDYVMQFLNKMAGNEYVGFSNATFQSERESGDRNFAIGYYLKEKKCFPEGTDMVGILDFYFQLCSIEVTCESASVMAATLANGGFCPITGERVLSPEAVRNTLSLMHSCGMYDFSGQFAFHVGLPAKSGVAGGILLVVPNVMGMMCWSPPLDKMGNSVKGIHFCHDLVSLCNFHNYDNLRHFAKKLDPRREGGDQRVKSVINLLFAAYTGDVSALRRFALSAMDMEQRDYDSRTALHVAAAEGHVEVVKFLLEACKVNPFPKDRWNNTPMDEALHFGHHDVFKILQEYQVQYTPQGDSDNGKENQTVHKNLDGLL

Potency, active:
CCCc1cc(=O)oc2cc(C)c(CN3CCCC3)c(O)c12 10 µM, CCCC[n+]1c2ccccc2cc2ccccc21 5.62 µM, CCC1=NN2C(=N)/C(=C\c3ccc(OCc4cc(=O)n5nc(CC)sc5n4)c(OC)c3)C(=O)N=C2S1 11.2 µM, CCOC(=O)CSC1=Nc2ccccc2C2=NC(CC(=O)NCc3ccc(OC)cc3)C(=O)N12 (stereo not drawn) 2.24 µM

Potency, inconclusive:
CN(C)c1nc(N)nc(CSc2nc3c(c(=O)n(C)c(=O)n3C)n2Cc2ccccc2F)n1 35.5 µM [inhibitor, partial curve, poor fit], CCC(C)N(C)C1CCN(C(=S)Nc2ccc(OC)cc2)CC1 (stereo not drawn) 7.08 µM [inhibitor, full curve, poor fit], COc1ccc(CN2CCC(C(=O)Nc3ccc(Oc4cccnc4)cc3)CC2)cc1 35.5 µM [inhibitor, single point], Cn1cc(Cl)c(C(=O)NNC(=S)Nc2cccc(Cl)c2)n1 31.6 µM [inhibitor, single point], Nc1nc(N)c2ncc(C(=O)CCc3ccccc3)nc2n1 25.1 µM [inhibitor, single point], COc1ccc(Cc2nnc(SCC(=O)Nc3ncc(C)s3)o2)cc1 35.5 µM [inhibitor, single point], COc1ccc(NC(=O)c2ccc(COc3ccccc3)o2)cc1 35.5 µM [inhibitor, single point], Cc1ccc(CN2CC(N3CC=CC3)CS2(=O)=O)cc1 (stereo not drawn) 15.8 µM [inhibitor, single point], COc1ccccc1-n1c(C)c(C(C)=O)c2cc(O)ccc21 12.6 µM [inhibitor, partial curve], Cc1ccc(Nc2cccccc2=O)cc1 25.1 µM [inhibitor, single point], S=C1NC(c2cccs2)=CC(c2ccc(Br)cc2)N1 (stereo not drawn) 0.891 µM [inhibitor, full curve], CCc1ccc(NCc2cc3cc4c(cc3n(CC(=O)Nc3ccc(F)cc3)c2=O)OCCO4)cc1 35.5 µM [inhibitor, single point], Cc1c(CCC(=O)N2CCC[C@H]2C(=O)O)c(=O)oc2c(C)c3oc4c(c3cc12)CCCC4 22.4 µM [inhibitor, single point], O=C(COc1cccc(C(F)(F)F)c1)N1CCN(c2ccc(O)cc2)CC1 7.94 µM [inhibitor, partial curve, poor fit], N#Cc1nc(Cl)c(Cl)c(NN)c1Cl 15.8 µM [inhibitor, single point], CCOC(=O)/C(=C\c1ccc(OC)c(OC)c1)C(=O)c1cccnc1 4.47 µM [inhibitor, full curve], Cc1cc(C=C2C(=O)CCCC2=O)c(C)n1-c1ccccc1 22.4 µM [inhibitor, single point], Cc1ccsc1/C=N/Nc1nc2ccccc2s1 22.4 µM [inhibitor, single point], COc1ccc(S(=O)(=O)N2CCN(C(=O)c3cc4c(s3)CCC4)CC2)cc1 35.5 µM [inhibitor, single point], COC(=O)C1=COC(OC2OC(CO)C(O)C(O)C2O)C2C1C=CC2(O)CO (stereo not drawn) 35.5 µM [inhibitor, single point], CCc1nc2ccc(C(=O)N3CCN(c4ccc(Cl)cc4)CC3)cc2nc1CC 14.1 µM [inhibitor, partial curve, poor fit], CNC(=O)c1c(NC(=O)c2cccc(C)c2)sc2c1CCC2 10 µM [inhibitor, single point], CCN(CC)S(=O)(=O)c1ccc(C(=O)NCc2n[nH]c(=S)n2-c2ccc(Cl)c(Cl)c2)cc1 11.2 µM [inhibitor, partial curve], COc1cccc(-c2coc3c(C)c4oc(=O)c(CCC(=O)O)c(C)c4cc23)c1 11.2 µM [inhibitor, single point], Cc1c(CC(=O)O)c(=O)oc2c(C)c3occ(-c4ccccc4)c3cc12 8.91 µM [inhibitor, partial curve, poor fit], COCC(=O)Oc1c(Sc2ccccc2[N+](=O)[O-])c(C)nn1C(C)(C)C 35.5 µM [inhibitor, single point], O=C(CCn1c(=O)c2cccn2c2cccnc21)N1CCN(c2cccc(Cl)c2)CC1 22.4 µM [inhibitor, single point], Cc1ccc(-c2nn(-c3ccccc3)c3[nH]c(=O)c(CNCc4ccccc4)cc23)cc1 35.5 µM [inhibitor, single point], COc1ccc(C2CC23N=C(c2ccccc2)OC3=O)cc1 (stereo not drawn) 15.8 µM [inhibitor, single point], COc1ccccc1CNC(=O)c1cnn2c(C)c(Cc3ccc(F)cc3)c(C)nc12 14.1 µM [inhibitor, partial curve], CCC(=O)N(C)CCc1cc2c(c(OC)c1/C=N/Nc1ccc(C(=O)O)cc1)OCO2 22.4 µM [inhibitor, single point], c1ccc2c3c([nH]c2c1)C(C1CCCCC1)N(Cc1ncc[nH]1)CC3 (stereo not drawn) 5.01 µM [inhibitor, partial curve, poor fit], O=C(Nc1cccc(N=Cc2cc(Br)cc(Br)c2O)c1)c1ccco1 35.5 µM [inhibitor, single point], COc1cc2[nH]c(=S)n(C3CC3)c(=O)c2cc1OC 11.2 µM [inhibitor, partial curve, poor fit], O=S(=O)(NCCSc1nc2ccccc2o1)c1ccccc1 28.2 µM [inhibitor, single point], Cc1c(OCC(=O)NC(Cc2c[nH]c3ccc(O)cc23)C(=O)O)ccc2c3c(c(=O)oc12)CCC3 (stereo not drawn) 8.91 µM [inhibitor, partial curve], COc1cc(/C=N/NC(=O)CCC(=O)Nc2ccc(Br)cc2)ccc1O 7.94 µM [inhibitor, partial curve, poor fit], Cn1c(=O)c2c(ncn2Cc2cccc(Cl)c2)n(C)c1=O 3.98 µM [inhibitor, single point], Cc1ccc(CCNc2nc3c(S(=O)(=O)c4ccc(C)cc4)nnn3c3ccsc23)cc1 22.4 µM [inhibitor, single point], Cc1cccc(-n2ccnc2SCC(=O)Nc2cccc(S(=O)(=O)NC3=NCCC3)c2)c1C 0.631 µM [inhibitor, partial curve, poor fit], O=C(NCCNC1CCCCC1)c1ccco1 5.62 µM [inhibitor, single point], CN1c2ccccc2Oc2nnc(N3CCN(Cc4ccccc4)CC3)cc21 35.5 µM [inhibitor, single point], COc1ccc(NC(=O)CSCC(=O)Nc2nnc(CC(C)C)s2)cc1 15.8 µM [inhibitor, single point], CN(C(=O)Cn1nnc(-c2cccc(C(F)(F)F)c2)n1)C1CCCCC1 20 µM [inhibitor, partial curve, poor fit]

Potency, inactive:
O=C(Nc1ccc(C(=O)N2CCN(c3ccc(Cl)cc3)CC2)cc1)c1nsc2ccccc12, Cc1ccc(-n2ncc3c(=O)n(CC(=O)Nc4cccc(Cl)c4)cnc32)cc1C, Cn1cccc1-c1nc2ccc([N+](=O)[O-])cc2[nH]1, COc1cccc(OCCOc2ccc(/C=C3\C(=N)N4N=C(S(C)(=O)=O)SC4=NC3=O)cc2OC)c1, CC(C)(C)C1C/C(=C/c2ccccn2)C(=O)/C(=C/c2ccccn2)C1 (stereo not drawn), CCCCN(C)C(=O)c1cc2c(s1)-c1ccccc1S(=O)(=O)C2, Cc1cccc(CS(=O)(=O)c2ncc(Cl)c(C(=O)NCc3ccccc3)n2)c1, COc1ccc(C(=O)Nc2ccc(S(=O)(=O)N3CCCCC3C)cc2)c(OC)c1OC (stereo not drawn), O=C(CSc1nc2c(cnn2-c2ccccc2)c(=O)[nH]1)c1ccc(Cl)cc1, CCn1c(=O)cc(SCC(=O)NCCc2ccc(OC)cc2OC)c2ccccc21, COc1ccc(NC(=O)Cn2c(SCc3ccc(C)cc3)nc3cccnc32)c(OC)c1, CC(C)C[C@H](NC(=O)c1nc[nH]c1C(=O)NCCCCCN)C(=O)OCc1ccccc1, Cc1cccc(N2CCN(C3(c4ccccc4)C(=O)c4ccccc4C3=O)CC2C)c1 (stereo not drawn), Cc1ccc(C)c(NC(=S)N/N=C2/CCCCc3ccccc32)c1, O=C(COc1ccccc1)Nc1ccccc1C(=O)OCc1cc(=O)n2nc(C3CC3)sc2n1, CCCCn1c(/C=C/c2ccco2)nc2ccccc21, CC(=O)Nc1ccc(S(=O)(=O)N2CCN(S(=O)(=O)c3ccccc3)CC2)cc1, Cc1ccc(-n2c(C)cc(/C([O-])=C(/C(=S)Nc3ccc(F)c(Cl)c3)[n+]3ccccc3)c2C)cc1, CCCC(=O)OCC1CN(Cc2ccco2)S(=O)(=O)c2c(F)cccc2O1 (stereo not drawn), C=CCNC(=O)CNS(=O)(=O)c1ccc(F)cc1

From PubChem BioAssay AID624170 (National Center for Advancing Translational Sciences (NCATS), 2012)
